Data: the supplement of paper PMC8728848
The list shows a part of the results.

Assays:
Assay in all cases: glycan array binding signal (z-score within array); higher = stronger binding
Details in all cases: glycan notation: IUPAC condensed, linker removed
Gal(b1-2)Gal = molecular target: Gal(b1-2)Gal
Summary of the method: (§1)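 Arrays were curated from the Consortium for Functional Glycomics database, 3228 in total, and kept only where the protein sequence was available. Binding is expressed as a within-array Z-score. This score was averaged across arrays of the same protein sequence at different concentrations or buffers and across linkers, and negative values can be read as non-binding.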

Gal(b1-3)Gal = molecular target: Gal(b1-3)Gal
Summary of the method: as §1

Gal(b1-3)Gal(b1-4)GlcNAc = molecular target: Gal(b1-3)Gal(b1-4)GlcNAc
Summary of the method: as §1

Gal(b1-3)GalNAc = molecular target: Gal(b1-3)GalNAc
Summary of the method: as §1

[1] = molecular target: Gal(b1-3)GalNAc(a1-3)[Fuc(a1-2)]Gal(b1-4)Glc
Summary of the method: as §1

[2] = molecular target: Gal(b1-3)GalNAc(a1-3)[Fuc(a1-2)]Gal(b1-4)GlcNAc
Summary of the method: as §1

Gal(b1-3)GalNAc(b1-3)Gal = molecular target: Gal(b1-3)GalNAc(b1-3)Gal
Summary of the method: as §1

[3] = molecular target: Gal(b1-3)GalNAc(b1-3)Gal(a1-4)Gal(b1-4)Glc
Summary of the method: as §1

[4] = molecular target: Gal(b1-3)GalNAc(b1-4)Gal(b1-4)Glc
Summary of the method: as §1

[5] = molecular target: Gal(b1-3)GalNAc(b1-4)[Neu5Ac(a2-3)]Gal(b1-4)Glc
Summary of the method: as §1

Gal(b1-3)GlcNAc = molecular target: Gal(b1-3)GlcNAc
Summary of the method: as §1

[6] = molecular target: Gal(b1-3)GlcNAc(a1-3)Gal(b1-4)GlcNAc
Summary of the method: as §1

[7] = molecular target: Gal(b1-3)GlcNAc(a1-6)Gal(b1-4)GlcNAc
Summary of the method: as §1

Gal(b1-3)GlcNAc(b1-2)Man = molecular target: Gal(b1-3)GlcNAc(b1-2)Man
Summary of the method: as §1

[8] = molecular target: Gal(b1-3)GlcNAc(b1-2)Man(a1-3)[Gal(b1-3)GlcNAc(b1-2)Man(a1-6)]Man(b1-4)GlcNAc(b1-4)GlcNAc
Summary of the method: as §1

[9] = molecular target: Gal(b1-3)GlcNAc(b1-2)Man(a1-3)[Gal(b1-3)GlcNAc(b1-2)Man(a1-6)]Man(b1-4)GlcNAc(b1-4)[Fuc(a1-6)]GlcNAc
Summary of the method: as §1

[10] = molecular target: Gal(b1-3)GlcNAc(b1-2)Man(a1-3)[GlcNAc(b1-4)][Gal(b1-3)GlcNAc(b1-2)Man(a1-6)]Man(b1-4)GlcNAc(b1-4)GlcNAc
Summary of the method: as §1

[11] = molecular target: Gal(b1-3)GlcNAc(b1-2)[Gal(b1-3)GlcNAc(b1-6)]Man(a1-6)[Gal(b1-3)GlcNAc(b1-2)Man(a1-3)]Man(b1-4)GlcNAc(b1-4)GlcNAc
Summary of the method: as §1

[12] = molecular target: Gal(b1-3)GlcNAc(b1-3)Gal(b1-3)GlcNAc
Summary of the method: as §1

[13] = molecular target: Gal(b1-3)GlcNAc(b1-3)Gal(b1-4)Glc
Summary of the method: as §1

[14] = molecular target: Gal(b1-3)GlcNAc(b1-3)Gal(b1-4)GlcNAc
Summary of the method: as §1

[15] = molecular target: Gal(b1-3)GlcNAc(b1-3)Gal(b1-4)GlcNAc(b1-2)Man(a1-3)[Gal(b1-3)GlcNAc(b1-3)Gal(b1-4)GlcNAc(b1-2)Man(a1-6)]Man(b1-4)GlcNAc(b1-4)GlcNAc
Summary of the method: as §1

[16] = molecular target: Gal(b1-3)GlcNAc(b1-3)Gal(b1-4)GlcNAc(b1-2)[Gal(b1-3)GlcNAc(b1-3)Gal(b1-4)GlcNAc(b1-6)]Man(a1-6)[Gal(b1-3)GlcNAc(b1-3)Gal(b1-4)GlcNAc(b1-2)Man(a1-3)]Man(b1-4)GlcNAc(b1-4)[Fuc(a1-6)]GlcNAc
Summary of the method: as §1

[17] = molecular target: Gal(b1-3)GlcNAc(b1-3)Gal(b1-4)GlcNAc(b1-3)Gal(b1-4)GlcNAc(b1-2)[Gal(b1-3)GlcNAc(b1-3)Gal(b1-4)GlcNAc(b1-3)Gal(b1-4)GlcNAc(b1-6)]Man(a1-6)[Gal(b1-3)GlcNAc(b1-3)Gal(b1-4)GlcNAc(b1-3)Gal(b1-4)GlcNAc(b1-2)Man(a1-3)]Man(b1-4)GlcNAc(b1-4)[Fuc(a1-6)]GlcNAc
Summary of the method: as §1

[18] = molecular target: Gal(b1-3)GlcNAc(b1-3)Gal(b1-4)GlcNAc(b1-6)[Gal(b1-3)GlcNAc(b1-3)]Gal(b1-4)Glc
Summary of the method: as §1

[19] = molecular target: Gal(b1-3)GlcNAc(b1-3)Gal(b1-4)[Fuc(a1-3)]GlcNAc
Summary of the method: as §1

[20] = molecular target: Gal(b1-3)GlcNAc(b1-3)Gal(b1-4)[Fuc(a1-3)]GlcNAc(b1-6)[Gal(b1-3)GlcNAc(b1-3)]Gal(b1-4)Glc
Summary of the method: as §1

[21] = molecular target: Gal(b1-3)GlcNAc(b1-3)GalNAc
Summary of the method: as §1

[22] = molecular target: Gal(b1-3)GlcNAc(b1-6)Gal(b1-4)GlcNAc
Summary of the method: as §1

[23] = molecular target: Gal(b1-3)GlcNAc(b1-6)GalNAc
Summary of the method: as §1

[24] = molecular target: Gal(b1-3)GlcNAc(b1-6)[Gal(b1-3)]GalNAc
Summary of the method: as §1

Gal(b1-3)GlcNAc6S = molecular target: Gal(b1-3)GlcNAc6S
Summary of the method: as §1

[25] = molecular target: Gal(b1-3)[Fuc(a1-4)]GlcNAc
Summary of the method: as §1

[26] = molecular target: Gal(b1-3)[Fuc(a1-4)]GlcNAc(b1-2)Man
Summary of the method: as §1

[27] = molecular target: Gal(b1-3)[Fuc(a1-4)]GlcNAc(b1-2)Man(a1-3)[Gal(b1-3)[Fuc(a1-4)]GlcNAc(b1-2)Man(a1-6)]Man(b1-4)GlcNAc(b1-4)[Fuc(a1-6)]GlcNAc
Summary of the method: as §1

[28] = molecular target: Gal(b1-3)[Fuc(a1-4)]GlcNAc(b1-3)Gal(b1-3)[Fuc(a1-4)]GlcNAc
Summary of the method: as §1

[29] = molecular target: Gal(b1-3)[Fuc(a1-4)]GlcNAc(b1-3)Gal(b1-4)[Fuc(a1-3)]GlcNAc
Summary of the method: as §1

[30] = molecular target: Gal(b1-3)[Fuc(a1-4)]GlcNAc(b1-6)GalNAc
Summary of the method: as §1

[31] = molecular target: Gal(b1-3)[GlcNAc(b1-6)]GalNAc
Summary of the method: as §1

[32] = molecular target: Gal(b1-3)[Neu5Ac(a2-6)]GalNAc
Summary of the method: as §1

[33] = molecular target: Gal(b1-3)[Neu5Ac(a2-6)]GlcNAc(b1-4)Gal(b1-4)Glc
Summary of the method: as §1

[34] = molecular target: Gal(b1-3)[Neu5Ac(b2-6)]GalNAc
Summary of the method: as §1

Gal(b1-4)Gal = molecular target: Gal(b1-4)Gal
Summary of the method: as §1

[35] = molecular target: Gal(b1-4)GalNAc(a1-3)[Fuc(a1-2)]Gal(b1-4)GlcNAc
Summary of the method: as §1

[36] = molecular target: Gal(b1-4)GalNAc(b1-3)[Fuc(a1-2)]Gal(b1-4)GlcNAc
Summary of the method: as §1

B1: LngA (Escherichia coli) (protein)
chain: MLSVYNRTQKFKAEARKKIAKYHELRKQRGMSLLEVIIVLGIIGTIAAGVVILAQRAFDSRAVTDLVTNTNTVRVRMKDAYQRDGKYPDFVDPLSLTANTIKTDTSGIPAAQLVQLGKITPDEVRNNISGDFIAIGGALTSNGAQVKKGFAIELNGLSQEQCRSILGQVGNNWEYVAIGTSASGSYAMTATGVDMSVAASTTVLRSLGNNGQTTLTADKILSTCTAQVNSITLGSR
- glycan array binding signal (z-score) (Gal(b1-2)Gal): 2.94
- glycan array binding signal (z-score) (Gal(b1-3)Gal): -0.316
- glycan array binding signal (z-score) (Gal(b1-3)Gal(b1-4)GlcNAc): -0.345
- glycan array binding signal (z-score) (Gal(b1-3)GalNAc): -0.143
- glycan array binding signal (z-score) [1]: -0.47
- glycan array binding signal (z-score) [2]: -0.315
- glycan array binding signal (z-score) (Gal(b1-3)GalNAc(b1-3)Gal): -0.455
- glycan array binding signal (z-score) [3]: -0.274
- glycan array binding signal (z-score) [4]: -0.145
- glycan array binding signal (z-score) [5]: -0.414
- glycan array binding signal (z-score) (Gal(b1-3)GlcNAc): -0.367
- glycan array binding signal (z-score) [6]: -0.545
- glycan array binding signal (z-score) [7]: -0.396
- glycan array binding signal (z-score) (Gal(b1-3)GlcNAc(b1-2)Man): -0.424
- glycan array binding signal (z-score) [8]: -0.329
- glycan array binding signal (z-score) [9]: -0.459
- glycan array binding signal (z-score) [10]: -0.39
- glycan array binding signal (z-score) [11]: -0.375
- glycan array binding signal (z-score) [12]: -0.304
- glycan array binding signal (z-score) [13]: -0.431
- glycan array binding signal (z-score) [14]: -0.414
- glycan array binding signal (z-score) [15]: -0.293
- glycan array binding signal (z-score) [16]: 1.4
- glycan array binding signal (z-score) [17]: 1.52
- glycan array binding signal (z-score) [18]: -0.487
- glycan array binding signal (z-score) [19]: -0.483
- glycan array binding signal (z-score) [20]: -0.463
- glycan array binding signal (z-score) [21]: -0.398
- glycan array binding signal (z-score) [22]: -0.512
- glycan array binding signal (z-score) [23]: -0.486
- glycan array binding signal (z-score) [24]: 1.41
- glycan array binding signal (z-score) (Gal(b1-3)GlcNAc6S): -0.169
- glycan array binding signal (z-score) [25]: -0.113
- glycan array binding signal (z-score) [26]: 1.12
- glycan array binding signal (z-score) [27]: 1.02
- glycan array binding signal (z-score) [28]: -0.572
- glycan array binding signal (z-score) [29]: -0.462
- glycan array binding signal (z-score) [30]: -0.438
- glycan array binding signal (z-score) [31]: -0.356
- glycan array binding signal (z-score) [32]: -0.585
- glycan array binding signal (z-score) [33]: -0.323
- glycan array binding signal (z-score) [34]: -0.499
- glycan array binding signal (z-score) (Gal(b1-4)Gal): 0.16
- glycan array binding signal (z-score) [35]: -0.479
- glycan array binding signal (z-score) [36]: -0.632
